# PubChem BioAssay AID686979 (National Center for Advancing Translational Sciences (NCATS), 2013)
# Among all 420,000 compounds or so, about 50,000 (12%) were called active. Inconclusive means that the source gave no clear call. Such entries were picked first, then a sample of the others. Calls come from the whole dose curve; as a rule, active = well fitted inhibition curve with a large enough effect; inconclusive = small, poorly fitted or top-dose-only effect; inactive = flat fitted curve, though single readings scatter. No potency is given beside an inconclusive call; the fits are too rough.
# Test: qHTS for Inhibitors of human tyrosyl-DNA phosphodiesterase 1 (TDP1): qHTS in cells in presence of CPT; note: nearly all actives have a fitted effect of over 55% in size
# Details: chicken DT40 Tdp1-/-;hTDP1 cells + 20 nM CPT, ATP luminescence, 48 h
# Method in brief: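 Cell growth measured by CellTiter-Glo luminescence after a minimum 48 h, 37 C compound exposure with 20 nM CPT in Tdp1-knockout DT40 cells stably expressing hTDP1, seeded 400/well; qHTS titration format.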
# [1] = activity change, negative = growth inhibition: at 46.2 µM (top of the series)
# % is set by controls: 0 for no effect and ±100 for the full control effect; potency is the fitted concentration of half-maximal effect; tags give direction and shape of the fitted curve.
compound,measurement,setting,value
CC(C)c1nc(SCC(=O)Nc2c[nH]c(=O)[nH]c2=O)c2cnn(-c3ccccc3)c2n1,Potency,[1],inactive
CCN(CC(=O)Nc1ccccc1OC)CC(=O)Nc1c(Cl)ccc(C)c1Cl,Potency,[1],"inconclusive [inhibitor, single point]"
Cc1cccc(N2C(=O)N(CC(=O)C(C)(C)C)c3ccccc3S2(=O)=O)c1C,Potency,[1],active: 14.6 µM
CCCCNC(=O)C[C@@H]1C[C@@]2(C(=O)OCC)CCC=C2N(Cc2ccc(Cl)cc2Cl)C1=O,Potency,[1],"inconclusive [inhibitor, single point]"
CC(C)(CNC(=O)c1cc(-c2ccc(Cl)s2)nc2ccccc12)N1CCOCC1,Potency,[1],"inconclusive [inhibitor, single point]"
CC(C)(C)c1ccc(C(=O)OCCNC(=O)c2c(Cl)nc3ccccn23)cc1,Potency,[1],"inconclusive [inhibitor, single point]"
O=C(O)c1ccc(-n2nncc2-c2ccccc2)cc1,Potency,[1],inactive
COc1ccc(C=O)cc1C1=CC(=O)C[C@H](c2ccc(Cl)cc2)C1,Potency,[1],"inconclusive [inhibitor, single point]"
O=C1Nc2ccccc2SC1=Cc1ccccc1,Potency,[1],inactive
COc1cccc(-c2cc3nc(Nc4ccc(OC)c(OC)c4)n(C)c(=O)c3s2)c1,Potency,[1],"inconclusive [inhibitor, single point]"
CCc1nc2ccc(C(=O)NCCCn3ccnc3)cn2c1N(C)Cc1ccc(Cl)cc1,Potency,[1],inactive
COC(=O)CNc1c(-c2ccccc2)nc2ccc(Br)cn12,"activity change, negative = growth inhibition",[1],inconclusive: -32.2% [inhibitor]
same,"activity change, negative = growth inhibition",at 46.2 µM (top of the series),inactive: -21%
Cc1cc(OC(C)C(=O)Nc2c(C(=O)c3ccc(F)cc3)oc3ccccc23)ccc1Cl (configuration not stated),Potency,[1],"inconclusive [inhibitor, single point]"
COc1ccccc1NC(=S)N1CCn2cccc2C1c1cccnc1 (configuration not stated),Potency,[1],inactive
COc1ccc(N2C(=O)CC(Sc3nc4c(cc3C#N)CCC4)C2=O)cc1 (configuration not stated),Potency,[1],inactive
Cc1ccccc1Cn1c(CN2CCN(C(=O)c3ccco3)CC2)nc2c1c(=O)n(C)c(=O)n2C,Potency,[1],inactive
O=C(CCl)Nc1cccc(S(=O)(=O)N2CCCCCC2)c1,Potency,[1],active: 4.11 µM
CC1(C)CC2(CCO1)OC(=O)CC2C(=O)Nc1ccccc1Cl (configuration not stated),Potency,[1],"inconclusive [inhibitor, single point]"
Oc1nc(Nc2ccc(F)cc2)sc1/C=C1\C=Nc2ccccc21,Potency,[1],"inconclusive [inhibitor, full curve, poor fit]"
COc1ccc(OCC(=O)N2CC3(C)CC2CC(C)(C)C3)cc1 (configuration not stated),Potency,[1],"inconclusive [inhibitor, single point]"
CCC1(CC)NC(=O)N(CC(=O)N2N=C(c3ccc(Cl)cc3)CC2c2ccco2)C1=O (configuration not stated),Potency,[1],"inconclusive [inhibitor, partial curve]"
CCCCn1c(-c2ccccc2C)nc2cc3[nH]c(=O)c(C(C)C)nc3cc21,Potency,[1],active: 20.6 µM
CC1CCN(c2nc3ccccc3n2CC(=O)c2ccccc2)CC1,Potency,[1],"inconclusive [inhibitor, single point]"
CCOC(=O)c1c(C)n(-c2ccc(C)cc2)c2c(C(C(C)=O)C(=O)O)c(Br)c(O)c(O)c12 (configuration not stated),Potency,[1],active: 23.1 µM
CC1=CC2=NC(=O)/C(=C\c3cccn3CCOc3ccccc3C)C(=N)N2O1,Potency,[1],active: 20.6 µM
CCn1c(=O)cc(SCC(=O)NCc2ccc(F)cc2Cl)c2ccccc21,Potency,[1],"inconclusive [inhibitor, single point]"
COc1ccccc1NC(=O)N(C)C[C@H]1OCc2cnnn2CCCC(=O)N([C@H](C)CO)C[C@H]1C,Potency,[1],inactive
CCN(CC(=O)Nc1ccccc1C(F)(F)F)C(=O)c1cc(S(=O)(=O)N(C)C)ccc1N1CCCC1,Potency,[1],"inconclusive [inhibitor, full curve]"
Cc1c(C(=O)NCc2ccc(F)cc2)sc(=O)n1Cc1ccccc1,Potency,[1],"inconclusive [inhibitor, partial curve]"
C[C@@H]1CN([C@@H](C)CO)C(=O)c2cc(Br)cnc2O[C@H]1CN(C)Cc1ccccc1C(=O)O,Potency,[1],inactive
COC(=O)c1ccc(OCC2c3cc(OC)c(OC)cc3CCN2C(=O)Cc2ccc(OC)cc2)cc1 (configuration not stated),Potency,[1],"inconclusive [inhibitor, single point]"
COc1c(Cl)cccc1-c1cn2ccc(C)cc2n1,Potency,[1],inactive
O=[N+]([O-])c1ccc(NCCNS(=O)(=O)c2ccccc2)cc1,Potency,[1],inactive
CC(CCCCCCCCC(=O)O)N(CCO)C(=O)OC(C)(C)C (configuration not stated),Potency,[1],"inconclusive [inhibitor, single point]"
COc1ccc(C(=O)/C=C/c2ccc(OC3CSC3)cc2)cc1,Potency,[1],"inconclusive [inhibitor, single point]"
O=C(Nc1ccccc1F)c1ccc2sc([C@H]3C[C@H](O)[C@@H](CO)O3)nc2c1,"activity change, negative = growth inhibition",[1],inconclusive: -30.7% [inhibitor]
Cc1ccc(OC(C)C(=O)Nc2ccncc2)cc1 (configuration not stated),Potency,[1],"inconclusive [inhibitor, single point]"
COC(=O)C1=C(CS(=O)(=O)c2ccccc2)NC(=O)NC1c1ccc(OC)c(OC)c1 (configuration not stated),Potency,[1],"inconclusive [inhibitor, single point]"
O=c1c(-c2cccs2)nc2cnc(Oc3ccccc3)nc2n1C1CC1,"activity change, negative = growth inhibition",[1],inconclusive: -30.7% [inhibitor]
CCOCC(=O)NCc1ccc2c(c1)cc(C)n2C,Potency,[1],"inconclusive [inhibitor, single point]"
OC(c1ccccc1)(c1nc(-c2cccc(F)c2)cs1)C(F)(F)F (configuration not stated),Potency,[1],"inconclusive [inhibitor, single point]"
O=c1c2c3c(sc2n2cnnc2n1-c1ccccc1)N(Cc1ccccc1)CCC3,Potency,[1],"inconclusive [inhibitor, partial curve, poor fit]"
COc1cccc(CC(=O)Nc2ccc3c(c2)c(=O)n(C)n3-c2ccc(C(C)(C)C)cc2)c1,Potency,[1],active: 25.9 µM
COC(=O)[C@@]12C[C@@H](CC(=O)N3CCSCC3)C(=O)N(CCc3ccc(OC)c(OC)c3)C1=CCC(C)(C)C2,Potency,[1],"inconclusive [inhibitor, single point]"
O=C(CCl)Nc1cc2[nH]c(=O)[nH]c2cc1Br,Potency,[1],active: 2.06 µM
O=[N+]([O-])/C(C(Cl)=C(Cl)Cl)=C(\Sc1ccccc1)N1CCCCC1,Potency,[1],active: 18.4 µM
O=C(CCc1nc2ccccc2c(=O)[nH]1)N1CCN(S(=O)(=O)c2cccc(F)c2)CC1,Potency,[1],"inconclusive [inhibitor, partial curve]"
NC1=NC2(CCCC2)N=C(Nc2ccccc2)N1,Potency,[1],inactive
Oc1c(C(c2ccc(F)cc2)N2CCOCC2)sc2nc(-c3ccco3)nn12 (configuration not stated),Potency,[1],inactive
Cc1ccc(S(=O)(=O)N2CCC(=O)N(C(COCc3ccc(C(F)(F)F)cc3)Cc3ccccc3)CC2)cc1 (configuration not stated),Potency,[1],active: 9.2 µM
Cc1ccc(Nc2nc3c(c(=O)[nH]c(=O)n3C)n2Cc2ccc(F)cc2)cc1,Potency,[1],inactive
O=C(NCCN1C(=O)S/C(=C\c2ccc(Cl)c(Cl)c2)C1=O)C1COc2ccccc2O1 (configuration not stated),Potency,[1],"inconclusive [inhibitor, single point]"
Cc1cc(C)cc(N2CC(c3nc(-c4cccc(Cl)c4)no3)CC2=O)c1 (configuration not stated),Potency,[1],"inconclusive [inhibitor, single point]"
COCC(C)N1CCC(Oc2ccc(C(=O)N3CCCC3)cc2)CC1 (configuration not stated),Potency,[1],inactive
O=C(COc1cccc2cccnc12)Nc1ccccc1,Potency,[1],inactive
CCOC(=O)[C@]12CCC=C1N(Cc1ccc3c(c1)OCO3)C(=O)[C@H](CC(=O)N1CCCCC1)C2,Potency,[1],"inconclusive [inhibitor, single point]"
COC(=O)C1C2C=CC3(CN(CCc4ccccc4)C(=O)C13)O2 (configuration not stated),Potency,[1],inactive
COc1ccccc1-n1cc(C(=O)NCCN2Cc3ccccc3OC(c3ccsc3)C2)cn1 (configuration not stated),"activity change, negative = growth inhibition",[1],inactive: 5.61% [at 9.04 µM]
COc1ccc(C)cc1NC(=O)C(=O)NNC(=O)COc1ccc(Cl)cc1,Potency,[1],"inconclusive [inhibitor, single point]"
Cc1nn(Cc2ccc(Cl)cc2)c(=O)n1N(C)c1ncc(C(F)(F)F)cc1Cl,Potency,[1],active: 20.6 µM
CCOc1ccccc1NC(=O)C1C2CCC(O2)C1C(=O)O (configuration not stated),Potency,[1],inactive
CCN1CCN(C(c2cccs2)C(C)NC(=O)C(=O)N2CCCCC2)CC1 (configuration not stated),Potency,[1],inactive
Clc1cccc(Cl)c1CSc1nnc(/C=C/c2ccccc2)o1,Potency,[1],"inconclusive [inhibitor, single point]"
COc1ccccc1-c1ccnc(-n2ncc(C(=O)NCCc3ccncc3)c2C)n1,"activity change, negative = growth inhibition",[1],inactive: 39.7% [at 9.04 µM]
Cc1cc(SCC(=O)N2CCC(c3noc4ccc(F)cc34)CC2)nc2ccccc12,Potency,[1],active: 23.1 µM
Cc1cc(C(=O)C(C)OC(=O)c2ccc(NC(=O)CC#N)cc2)c(C)n1-c1ccc(OC(F)F)cc1 (configuration not stated),Potency,[1],active: 23.1 µM
CC(C)(C)NC(=O)CN(C(=O)CCN1CCCc2ccccc21)C(C)(C)C,Potency,[1],"inconclusive [inhibitor, single point]"
O=C1C(Nc2ccccc2)=CC(c2ccc(Br)cc2)N1c1ccccc1 (configuration not stated),Potency,[1],"inconclusive [inhibitor, partial curve]"
O=[N+]([O-])c1ccc(NN=C2CC3CCC2C3)c([N+](=O)[O-])c1 (configuration not stated),Potency,[1],active: 18.4 µM
CC(=O)c1ccc(Nc2nc(=O)c3cccnc3s2)cc1,Potency,[1],"inconclusive [inhibitor, full curve, poor fit]"
CCOC(=O)c1[nH]c(C)c(C(=O)OCC(=O)NCc2ccc(OC)c(OC)c2)c1C,Potency,[1],"inconclusive [inhibitor, single point]"
